Experimental data reported in PMC4336329 (PLoS ONE, 2015).
Out of some 310,000 compounds screened, about 14,000 (4.5%) showed an effect of 50% or more. The effect is printed as a negative number. The list shows a part of the results.

Target: human ether-à-go-go-related gene (hERG) potassium channel (human, UniProt Q12809)
Experiment: primary screen, population patch clamp on CHO cells stably expressing hERG
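Also: peak tail current of the secondary pulse compared with the same well before compound.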

human ether-à-go-go-related gene (hERG) potassium channel, sequence (Q12809 whole entry, looked up): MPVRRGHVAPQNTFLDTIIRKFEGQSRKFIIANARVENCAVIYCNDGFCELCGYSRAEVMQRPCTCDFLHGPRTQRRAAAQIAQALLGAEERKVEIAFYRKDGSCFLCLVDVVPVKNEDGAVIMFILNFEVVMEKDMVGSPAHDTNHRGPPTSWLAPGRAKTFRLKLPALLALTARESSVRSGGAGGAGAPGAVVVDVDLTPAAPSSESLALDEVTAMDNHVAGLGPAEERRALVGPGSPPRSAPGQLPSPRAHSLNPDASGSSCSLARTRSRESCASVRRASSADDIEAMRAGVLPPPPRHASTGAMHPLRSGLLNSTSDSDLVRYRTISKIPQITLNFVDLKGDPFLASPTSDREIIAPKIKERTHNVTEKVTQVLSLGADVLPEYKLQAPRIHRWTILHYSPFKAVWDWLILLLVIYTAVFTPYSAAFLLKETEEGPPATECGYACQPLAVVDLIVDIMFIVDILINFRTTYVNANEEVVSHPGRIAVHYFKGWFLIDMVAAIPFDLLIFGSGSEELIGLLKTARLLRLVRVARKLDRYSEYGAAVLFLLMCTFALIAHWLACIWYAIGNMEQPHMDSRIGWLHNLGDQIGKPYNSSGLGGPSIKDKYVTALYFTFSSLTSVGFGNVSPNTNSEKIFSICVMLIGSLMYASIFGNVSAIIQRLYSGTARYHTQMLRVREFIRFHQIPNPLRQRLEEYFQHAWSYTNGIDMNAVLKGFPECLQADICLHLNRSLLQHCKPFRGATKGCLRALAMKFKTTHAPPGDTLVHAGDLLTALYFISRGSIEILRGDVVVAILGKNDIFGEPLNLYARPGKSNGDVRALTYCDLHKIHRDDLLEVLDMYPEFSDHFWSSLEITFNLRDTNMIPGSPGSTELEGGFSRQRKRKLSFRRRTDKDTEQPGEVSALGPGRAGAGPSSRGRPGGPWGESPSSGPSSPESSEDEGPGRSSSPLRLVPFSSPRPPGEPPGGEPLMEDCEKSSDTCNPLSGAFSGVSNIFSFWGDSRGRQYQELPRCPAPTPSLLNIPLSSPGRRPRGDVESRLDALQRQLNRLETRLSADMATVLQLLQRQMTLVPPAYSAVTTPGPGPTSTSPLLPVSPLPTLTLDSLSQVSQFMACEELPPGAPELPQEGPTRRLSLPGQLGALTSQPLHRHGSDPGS

Structure (SMILES)	hERG current change (%, negative = inhibition) at 10uM
COc1cccc(OC)c1C(=O)NC(=O)Nc1c(C)cccc1C	5.78%
CCN(CC)S(=O)(=O)c1ccc(NC2CCN(Cc3ccccc3)CC2)nc1	-57.9%
CCN(CC)S(=O)(=O)c1cc(NC(=O)C2CC(=O)N(Cc3ccccc3)C2)ccc1Cl (stereo not shown)	-37.8%
Cc1cccc(-n2ncc3c(NCCCN4CCCC4=O)ncnc32)c1	-22.7%
Cc1ccc(S(=O)(=O)NC(C)C(=O)NC2CC2)cc1 (stereo not shown)	21.4%
O=S(=O)(Nc1ccc(Cc2ccncc2)cc1)c1ccc(Br)cc1	-41.2%
O=C1COc2ccc(C(=O)CSc3ccccc3C(=O)O)cc2N1	12.1%
CN1C2CCC1CC(OC(=O)c1c[nH]c3ccccc13)C2 (stereo not shown)	-59.1%
CCOC(=O)c1c(-c2ccccc2)csc1NC(=O)c1ccc(N2C(=O)CCC2=O)cc1	5.41%
CCCCN(C(=O)CN1CC(C)OC(C)C1)c1c(N)n(CC(C)C)c(=O)[nH]c1=O (stereo not shown)	9.06%
O=CC1=C(N2CCOCC2)/C(=C/c2ccc(Cl)cc2)CC1	9.85%
COc1ccc(/C=C2\SC(=O)N(CC(=O)Nc3ccccc3O)C2=O)cc1OC	9.72%
O=C(CSc1n[nH]c(-c2ccccc2Cl)n1)NC1CCCCC1	3.06%
CN(c1ccc(OC(=O)c2ccc(-n3cncn3)c([N+](=O)[O-])c2)cc1)S(=O)(=O)c1ccccc1	-16.2%
CCOC(=O)C(C)n1nc(/C=C/c2ccccc2)ccc1=O (stereo not shown)	-1.5%
Cc1sc2ncn(CC(=O)Nc3ccccc3F)c(=O)c2c1-c1ccccc1	-0.62%
CC(C)(C)C(=O)Nc1sc2c(c1C#N)CCC2	21.8%
CC(C)CC(=O)NC(=S)Nc1cccc(NC(=O)c2ccccc2Cl)c1	-8.32%
CC(=O)OCC(=O)[C@@]1(O)CC[C@H]2[C@@H]3CCC4=CC(=O)C=C[C@]4(C)[C@@]3(F)[C@@H](O)C[C@@]21C	6.6%
Cc1ccc(C)c(N2CCN(C(=O)c3ccc(Cl)c(NC4=NC5CS(=O)(=O)CC5S4)c3)CC2)c1 (stereo not shown)	6.26%
CCCN1Cc2cccc(C(=O)NC(CC(=O)OCC)c3ccc(OCC)c(OC)c3)c2C1=O (stereo not shown)	-31.2%
CCN1CCN(C(=O)C2c3cc(OC)c(OC)cc3C(=O)N(C)C2c2ccc(SC)cc2)CC1 (stereo not shown)	-14.3%

Structure (SMILES)	hERG current change (%, negative = inhibition) at 10uM
CCC1Oc2ccccc2N(CC(=O)NCCN2CCCC2)C1=O (stereo not shown)	2.28%
Cc1ccn(CCSCC(=O)O)n1	1.03%
CCOC(=O)c1cnn(C)c1NC(=O)c1ccc([N+](=O)[O-])cc1	-17.2%
CC(=O)N1CCN(CC(=O)Nc2ccc(C)c(F)c2)CC1.Cl	0.314%
C[C@]12CCC(O)CC1CCC1C2CC[C@]2(C)C(c3cc(C(F)(F)F)n[nH]3)CCC12 (stereo partly shown)	21.3%
CCN1CCN(c2nc3ccccc3s2)CC1	-12.5%
COc1ccc2sc(N(CCCN(C)C)C(=O)c3ccc(S(=O)(=O)N(C)Cc4ccccc4)cc3)nc2c1.Cl	-16.4%
CSc1nnc(-c2cccs2)n1-c1ccccc1	-5.91%
COc1ccc(C)cc1N(CC(=O)O)S(=O)(=O)c1ccc(C)cc1	17.1%
Cc1c(C)n(CC(O)CN2CCCCCC2)c2ccccc12 (stereo not shown)	-20%
CC(C)(O)C(=O)N/N=C\c1ccc(OC/C=C/c2ccccc2)cc1	20.4%
CC1CCC(NC(=O)c2cccc(S(=O)(=O)NCc3ccccc3)c2)CC1 (stereo not shown)	-49.2%
CCOC(=O)c1c(-c2ccccc2)nc2ccc(Cl)cn12	30%
O=C(OCC(=O)N1CCCC1=O)c1nc(Cl)c(Cl)c(Cl)c1Cl	-60.4%
Cc1cccc(-n2ncc3c2CCCC3NC(=O)CN2CCCC2=O)c1C (stereo not shown)	25%
CCn1c(=O)c([N+](=O)[O-])c(NCc2ccco2)c2ccccc21	2.31%
COc1ccc(CNC(=O)c2cc(C3CC3)nc3c2cnn3C(C)C)cc1OC	-2.6%
Cc1nc(NC(=O)C2CCCC2)sc1Cc1ccc2c(c1)OCO2	-21.6%
Brc1ccc(-c2noc(COc3ccc4ccccc4c3)n2)o1	-5.19%
Cc1ccccc1N1C(=O)C2ON(c3ccccc3)C(c3cccnc3)C2C1=O (stereo not shown)	-17.2%
Cc1ccccc1NC(=O)C1CCN(c2cnccn2)CC1	-14.7%
CCc1nnc(NC(=O)CCC(=O)N2CCN(C3c4ccccc4-c4ccccc43)CC2)s1	6.46%

Structure (SMILES)	hERG current change (%, negative = inhibition) at 10uM
Cc1cc(C2=NNC(=NC3CC3)SC2)c(C)n1-c1c(C)n(C)n(-c2ccccc2)c1=O.Cl	-6.65%
O=C(Nc1ccc2nccnc2c1)Nc1ccccc1Cl	17.8%
O=C(CSc1nnnn1-c1ccc(Cl)cc1)N1CCc2ccccc2C1	-39.3%
C[n+]1cccc(C(=O)Nc2ccccc2)c1.[Cl-]	21%
O=C(NCc1cccs1)C1CC(=O)N(c2ccc(Cl)cc2)C1 (stereo not shown)	-40.7%
O=C(Nc1ccc(S(=O)(=O)Nc2ncccn2)cc1)c1ccco1	6.2%
COc1ccc(NC(=O)c2ccccc2Cl)cc1NC(=O)CN1CCOCC1	-5.99%
O=C(COc1ccc(Cl)cc1)N1CCN(c2ccc([N+](=O)[O-])c(N3CCCCC3)c2)CC1	2.92%
Cc1ccc(C(=O)Nc2ccc(Nc3ccccc3)cc2)cc1Br	-7.02%
COc1ccc(C)cc1NC(=O)Nc1cccc(C)c1	9.39%
COC(=O)CC(c1ccc(C#N)cc1)n1c(C)ccc1C (stereo not shown)	2.31%
Cc1ccc(-c2c(C#N)c(N)nc3c2CCCCCC3)o1	3.26%
O=C(NCCc1ccc(C(F)(F)F)cc1)C1COc2ccccc2O1 (stereo not shown)	6.12%
CCOC(=O)c1cccc(NC(=O)CSc2nnc(CNc3ccc(C)cc3)n2CC)c1	-20.6%
COCCn1c(SCC(=O)NC2CCCCC2C)nnc1-c1ccncc1 (stereo not shown)	3.08%
O=C(Cn1[nH]c(=O)c2ccccc2c1=O)NC1CCN(Cc2ccccc2)CC1	0.791%
C#CCNC(=O)C1=C[C@@H](c2ccc(C(F)(F)F)cc2)[C@H](CCCO)[C@@H](OCC)O1	-37.7%
O=C1CC(/C=C/c2ccncc2)=Nc2ccccc2N1	12%
Cc1ccc(C(=O)NC(=S)Nc2ccc(S(=O)(=O)N3CCN(C)CC3)cc2)cc1	0.896%
Cc1n[nH]c(C)c1S(=O)(=O)N1CCc2ccccc2C1	0.673%
OCc1ccccc1O[C@@H]1O[C@H](CO)[C@@H](O)[C@H](O)[C@H]1O	5.5%
COc1ccc(NC(=O)C2CC(=O)N(CCc3ccc(Cl)cc3)C2)cc1 (stereo not shown)	-24%

Structure (SMILES)	hERG current change (%, negative = inhibition) at 10uM
CCn1cc(C(C)NC(=O)Nc2ccccc2C(=O)OC)c(C)n1 (stereo not shown)	6.95%
CCN(CC)S(=O)(=O)c1ccc(F)c(C(=O)NCCCN2CCOCC2)c1	-11.7%
Cc1cc(C(=O)OCC(=O)Nc2cccc(F)c2)c(C)n1C1CC1	-2.59%
O=C(CNC(=O)c1ccccc1)OC(C(=O)Nc1cc(C(F)(F)F)ccc1Cl)c1ccccc1 (stereo not shown)	10.1%
CC(=O)SCCC(=O)Nc1ccccc1	23.4%
CC1(C)CC(CCC(=O)Nc2ccccc2Cl)C(=O)O1 (stereo not shown)	-3.46%
COC(=O)Cn1c2ccc(C)cc2c2nc(C)sc21	-7.39%
Cc1ccc(C)c(S(=O)(=O)NC(CC(C)C)C(=O)O)c1 (stereo not shown)	5.89%
CCCCN1C(=O)C2NN=C(C(=O)OCC)C2C1=O (stereo not shown)	7.51%
CC(=O)OCC1=C(C(=O)O)N2C(=O)C(NC(=O)c3ccc(COc4c(C)cccc4Cl)o3)C2SC1 (stereo not shown)	-2.23%
Cc1ccc(C)c(NC(=O)CN(C)C(=O)CSC(C)C(=O)Nc2cc(C)on2)c1 (stereo not shown)	16.9%
Cc1ccc(CNC(=O)C2CCCN2C(=O)Nc2cccc(Cl)c2)cc1 (stereo not shown)	6.49%
Cc1occc1C(=O)NNC(=S)NCC(C)C	4.47%
COc1ccc(-c2[nH]ncc2/C=N/NC(=O)c2ccncc2)c(OC)c1	13.8%
O=C(CSc1nc2c(c(=O)n1-c1ccc(F)cc1)SCC2)N1CCCC1	10.1%
COc1cccc(N2CN(CCc3ccccc3)CNC2=S)c1	9.83%
O=C(O)c1ccc2nc(C(F)(F)F)[nH]c2c1	-1.42%
COc1ccccc1/C=N/NC(=O)CSc1cc(C)nc2ccccc12	-5.68%
CCOc1ccccc1N(CC(=O)Nc1c(C)n(C)n(-c2ccccc2)c1=O)S(=O)(=O)c1ccccc1	-10.9%
COc1ccc2c(c1)c(/C=C/c1cc[n+](C)cc1)cn2C.[I-]	12.9%
CCOCCCNC(=O)c1c[nH]c2ccc(OCC)cc2c1=O	-2.11%
CC1=C(C(=O)O)N2C(=O)C(NC(=O)c3nn(C)cc3[N+](=O)[O-])C2SC1 (stereo not shown)	17.5%
